Experimental data from the supplement of paper PMC7726561.
In all, about 1,100 sequences were measured (“thermal melting temperature (Tm) of peptide-HLA complex”: median about 58, lowest 2% from about 42 on). The list shows a part of the results.

B1: unnamed (peptide)
chain: FLDHIIASV
B2: unnamed (peptide)
chain: SLNTGIITV
B3: unnamed (peptide)
chain: NQMPTQPQV
B4: unnamed (peptide)
chain: KMLEIDPQKV
B5: unnamed (peptide)
chain: LLEKQQIYL
B6: unnamed (peptide)
chain: ALLAELEKI
B7: unnamed (peptide)
chain: VLMTQQPRPVL
B8: unnamed (peptide)
chain: VLAHTILGV
B9: unnamed (peptide)
chain: TLQDIVYKL
B10: unnamed (peptide)
chain: VQIEEVRQV
B11: unnamed (peptide)
chain: SLPDIKVYL
B12: unnamed (peptide)
chain: GLIDVKPLGV
B13: unnamed (peptide)
chain: SMLEDVQRA
B14: unnamed (peptide)
chain: FLYSDEVQI
B15: unnamed (peptide)
chain: VLDSVDVRL
B16: unnamed (peptide)
chain: ILAQEIVKA
B17: unnamed (peptide)
chain: LLLPFKIIEA
B18: unnamed (peptide)
chain: RLINQVLEL
B19: unnamed (peptide)
chain: FLWPKEVEL
B20: unnamed (peptide)
chain: FLQEKSPAV
B21: unnamed (peptide)
chain: GLHNVVYGI
B22: unnamed (peptide)
chain: RLYHITDQV
B23: unnamed (peptide)
chain: VIWGKVTRA
B24: unnamed (peptide)
chain: KIIEYSVYL
B25: unnamed (peptide)
chain: KIGDFGLATV
B26: unnamed (peptide)
chain: GLADASLLKKV
B27: unnamed (peptide)
chain: ALYVAVVNV
B28: unnamed (peptide)
chain: QLEEEGITFV
B29: unnamed (peptide)
chain: FLSDGTIISV
B30: unnamed (peptide)
chain: GLLDLPFRV
B31: unnamed (peptide)
chain: LLSESNERL
B32: unnamed (peptide)
chain: ALESFLKQV
B33: unnamed (peptide)
chain: KMDDPTVNWSI
B34: unnamed (peptide)
chain: ALLGKLDAINV
B35: unnamed (peptide)
chain: GLHFVVPSV
B36: unnamed (peptide)
chain: TLYPGRVIL
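Note: cell lysates heated 10 min at 37–73 °C, remaining pHLA pulled down with pan-class I antibody, peptides quantified by DIA-MS versus 37 °C, Tm where half the complex is lost.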

What follows are sequences tested against HLA-A*02:01 (assay: thermal melting temperature (Tm) of peptide-HLA complex; higher = more thermostable pHLA complex). Details: C1R-A*02:01.
B1 gave a thermal melting temperature of 61.4 °C. With B2 the thermal melting temperature was 55.1 °C. With B3 the thermal melting temperature was 52.2 °C. For B4, the thermal melting temperature was 56.1 °C. With B5 the thermal melting temperature was 42.4 °C. For B6, the thermal melting temperature was 62.1 °C. In the case of B7, the thermal melting temperature is reported as 48.8 °C. B8 was tested, and the thermal melting temperature was 60.9 °C. In the case of B9, the thermal melting temperature is reported as 56.6 °C. In the case of B10, the thermal melting temperature is reported as 55.2 °C. Work on B11 yielded a thermal melting temperature of 59.9 °C. In the case of B12, the thermal melting temperature is reported as 60.7 °C. B13 gave a thermal melting temperature of 54.8 °C. With B14 the thermal melting temperature was 54.1 °C. B15 showed a thermal melting temperature of 52.9 °C. B16 showed a thermal melting temperature of 55.1 °C. B17 showed a thermal melting temperature of 55.8 °C. For B18, the thermal melting temperature was 57.2 °C. In the case of B19, the thermal melting temperature is reported as 64.6 °C. B20 was tested, and the thermal melting temperature was 60.7 °C. For B21, the thermal melting temperature was 60.8 °C. B22 showed a thermal melting temperature of 56.9 °C. B23 gave a thermal melting temperature of 54.3 °C. With B24 the thermal melting temperature was 59.5 °C. For B25, the thermal melting temperature was 59.3 °C. For B26, the thermal melting temperature was 62.5 °C. For B27, the thermal melting temperature was 57.4 °C. B28 was tested, and the thermal melting temperature was 46.1 °C. Work on B29 yielded a thermal melting temperature of 57.5 °C. In the case of B30, the thermal melting temperature is reported as 61.4 °C. Sequence B31 has a thermal melting temperature of 54.3 °C. B32 showed a thermal melting temperature of 58.9 °C. B33 was tested, and the thermal melting temperature was 58.8 °C. With B34 the thermal melting temperature was 59.8 °C. Work on B35 yielded a thermal melting temperature of 62.4 °C. In the case of B36, the thermal melting temperature is reported as 58 °C.
